In patent US12551573B2, “Compositions and methods for the targeting of PCSK9” (Scribe Therapeutics Inc., priority 2022, dated 2026):

System: HBEGF locus
Format: cell-based, human
Conditions: high-throughput screen of dXR repression of the HBEGF gene; change in abundance of each domain in the library before and after diphtheria toxin selection

Molecule	Log2 (fold change)
DOMAIN_3691 (protein, listed as Macaca mulatta) MDSVAFEDVAVNFTQEEWALLSPSQKNLYRDVMLEAFRNLASVGIQWKDQDTENLYQNLGIKLRHMRAHAGHTRSECGGEW	2.8393
DOMAIN_3759 (protein, listed as Macaca mulatta) MGLLTFRDVAIEFSLEEWQCLDTAQKNLYRNVMLENYRNLAFLGVAVSKPDLIICLEKDKEPWNMKRHEMVDEPPGLTVSN	2.5324
DOMAIN_3760 (protein, listed as Macaca mulatta) MEPLKFRDVAVEFSLEEWQCLDTIQQNLYRNVMLENYRNLVFLGIAVSKPDLITCLEQEKEPWTRKRHRMVAKPVTCSHFA	2.7025
DOMAIN_3781 (protein, listed as Macaca mulatta) MAHFQGSVTFEDVAIAFSQQEWESLDSSQRGLYRDVMLENYRNLVSMGHSLSKPHVIALLERWKEPKVTERKDGRRWCTDL	2.9317
DOMAIN_3782 (protein, listed as Macaca mulatta) MAHFQGSVTFEDVAIAFSQQEWESLDSSQRGLYRDVMLENYRNLVSMAGHSLSKPHVIALLERWKEPKVTERKDGRRWCTD	2.3058
DOMAIN_18258 (protein, listed as Physeter macrocephalus) KEAFVAFGDVAVDFTQEEWRLLSPAQRTLHREVMLETYNHLVSLEIPFSKPKLISQLERGEEPWIEERQRPLGLCPASRPT	3.75
DOMAIN_3803 (protein, listed as Macaca mulatta) MNMEGLVMFQDLFIHFSQEEWECLDAAQKDLYRDVMMENYSSLVSLGLCIPKPDVISLLEQGKEPWMVSRDVLGGWCPDSE	3.0165
DOMAIN_4030 (protein, listed as Macaca mulatta) MSLGSELFRDVAIVFSQEEWQCLAPAQRDLYRDVMLETYNNLVSLGLAISKPDVISFLEQGKEPWMVERVVSGGLCPVLES	2.5274
DOMAIN_4036 (protein, listed as Macaca mulatta) MNVEVVKVMPQDLVTFKDVAIDFSQEEWQWMNPAQKHLYRSMMLENYQSLVSLGLCISKPCVISLLEQGREPWEMTSEMTR	2.7725
DOMAIN_4046 (protein, listed as Macaca mulatta) MATALTDPAQVSVTFDDVAVTFTQEEWGQLDLAQRTLYQEVMLENCGLLVSLGCPVPRPELIYHLEHGQEPWTRKEDLSQD	2.7847
DOMAIN_4126 (protein, listed as Macaca mulatta) MLQTAWRQEPVTFEDVAVYFTQNEWASLDSVQRALYREVMLENYANVASLAFPFTTPVLVSQLEQGELPWGLDPWEPMGRE	3.529
DOMAIN_4129 (protein, listed as Macaca mulatta) MMTAVSLTTRSQESVAFEDVAVYFTTKEWAIMVPAERALYRDVMLENYEAVAFVVPPTSKPALVSHLEQGKESCFIRPQGV	3.7382
DOMAIN_4184 (protein, listed as Macaca mulatta) MVTFEDVAVHFTKTEWTGLSPAQRALYRSVMLENFGNLTALGYPVPKPALISLLEGGDMAWGLEAQDDAPAERTKNICKGR	3.2397
DOMAIN_19804 (protein, listed as Callorhinus ursinus) QAEVTFEDVAVLFSREEWGRLGPAQRGLYRDVMLETYRNLVSLGAGPAGPKPGVITQLERGDEPWVLDAQGAKGKERLRVS	3.8217
DOMAIN_4185 (protein, listed as Macaca mulatta) MVTFEDVAVHFTKTEWTGLSPAQRALYRSVMLENFGNLTALGYPVPKPALISLLEGGDMAWGLEAQDDAPAERTKNICKVI	2.9116
DOMAIN_4199 (protein, listed as Macaca mulatta) MELLSFEDVAMYFTREEWGHLDWGQKDLYRDVMLENYRNMVLLGFQFPKPEVICQLENWDEQWILDLPRAGSRKASGSACP	2.6844
DOMAIN_4394 (protein, listed as Callithrix sp.) PVRGPGEARPSRKRGRRPRALKFVDVAVYFSSEEWGCLRPAQRALYRDVMRETYGHLGALGCAGPKPALISWLERNTDDWE	3.8103
DOMAIN_4425 (protein, listed as Callithrix sp.) TMTTVSSTARPQESVAFDDVAVYFTKKEWAIMVPDQRALYRDVMLENYEAVAFVVPPTSKPALISHLEQGKEPCFTQPQGV	2.9741
DOMAIN_4461 (protein, listed as Callithrix sp.) MLQTAWRQEPVTFEDVAVYFTQNEWTSLDPVQRALYREVMLENYANVASLAFPFTTPVLVSQLEQGERPWGLDPWEPVGRE	3.0094

Molecule	Log2 (fold change)
DOMAIN_4463 (protein, listed as Callithrix sp.) MLQTAWPQRLSRNLWFQESVAFEDVAVYFTQNQWASLDPAQRALYREVMLENYANVTSLVAFPFPKPALISHLEKGEAPWG	2.9717
DOMAIN_4515 (protein, listed as Callithrix sp.) MAAGQPEARPQVSLTFEDVAVLFTRDEWRKLAPSQRNLYRDVMLENYRNLVSLGLPFTKPKVISLLQQGEDPWKVEKDCFG	4.2166
DOMAIN_4534 (protein, listed as Callithrix sp.) CFSGEERMAAGHPPRWPQELVTFEDVSVDFSQEEWELLDPAQKELYREVTLENYRNLVSLEALKNPCADAGMEEGPFSTAH	2.6242
DOMAIN_221 (protein, listed as Pan paniscus) MMFQDSVAFEDVAVTFTQEEWALLDPSQKNLYRDVMQETFRNLASIGKKWKPQNIYVEYENLRRNLRIVGERLFESKEGHQ	3.5533
DOMAIN_4574 (protein, listed as Callithrix sp.) MFQDSVAFEDVAVTFTQEEWALLDPSQKTLYRDVMQENFRNLASVGKKWKAQNIYVEYKNLRRNLRNLMGKRLFESKEDHQ	2.7135
DOMAIN_4580 (protein, listed as Callithrix sp.) DSVAFEDVAVNFTQEEWALLDRSQKKLYREVMQETLRNLTSIGKTWSNQNAEERHQNPRRNLRRLIGERLFQSKESHQHAE	2.9618
DOMAIN_4589 (protein, listed as Callithrix sp.) MDTVALEDVAVNFTQEEWALLGPSQKKLYRDVMQETIRNLDCIKMISEDQNIEDQYKNPKKNLRCRMAERLSESKDNSQCG	2.507
DOMAIN_4665 (protein, listed as Callithrix sp.) MTPGPPGSLEMEPLTFKDVAIEFCLEEWQCLDTAQQDLYRNVMLENYRNLVFLGIAVSKPDLITCLEQGKVPWNRKRHEMV	3.2985
DOMAIN_4705 (protein, listed as Callithrix sp.) MNMEGLVMFQDLSIDFSQEEWECLNPAQKDLYRDVMMENYSSLLSLGLSIPKPDVISLLEQGKEPWMVSRDILGGWCPDRL	3.5232
DOMAIN_4722 (protein, listed as Callithrix sp.) MALRSVIFSDISIDFSPEEWEYLDLEQKDLYRDVMLENYSNLVSLGCFISKPDVISLLEQGKEPWKVVRKRRRQYPDLETK	4.8639
DOMAIN_4748 (protein, listed as Callithrix sp.) MINYQTPVSFRDVVVGFTQEEWHRLNPTQRALYRDVMLETYSNLVSVGYEGTKPDVILRLEQEEAPWIGEAACLGCHCWED	3.0477
DOMAIN_4749 (protein, listed as Callithrix sp.) MINYQTPVSFRDVVVGFTQEEWHRLNPTQRALYRDVMLETYSNLVSVGYEGTKPDVILRLEQEEAPWIGEAACLGCHCWGI	3.5545
DOMAIN_4751 (protein, listed as Callithrix sp.) MINYQTPVSFRDVVVGFTQEEWHRLNPTQRALYRDVMLETYSNLVSVGYEGTKPDVILRLEQEEAPWIGEAACLGCHCWGK	3.238
DOMAIN_4921 (protein, listed as Callithrix sp.) MPLGSELFRDVAIVFSQEEWQWLAPAQRDLYRDVMLETYSNLVSLGLAISKPDVISFLEQGKEPWMVERVVAGGLCPEAEL	3.5291
DOMAIN_4922 (protein, listed as Callithrix sp.) MPLGSELFRDVAIVFSQEEWQWLAPAQRDLYRDVMLETYSNLVSLGLAISKPDVISFLEQGKEPWMVERVVAGGLCPVLES	4.0258
DOMAIN_4978 (protein, listed as Callithrix sp.) MAAAALRLPAQGTVTFEDVAVKFSQEEWSILTEAQRCLYHDVMLENLALISSLGCWYGAKDETPSKQTLSIQQQSPLRSHW	2.7787
DOMAIN_5029 (protein, listed as Callithrix sp.) MAFRDVAVDFTQDEWRLLSPAQRTLYREVMLENYSNLVSLGISFSKPEIITQLEQGKETWREEKKCPPATCPADPEPELCL	2.2642
DOMAIN_5031 (protein, listed as Callithrix sp.) MAHMAFRDVAVDFTQDEWRLLSPAQRTLYREVMLENYSNLVSLGISFSKPEIITQLEQGKETWREEKKCPPATCPDPEPEL	2.8605
DOMAIN_5060 (protein, listed as Callithrix sp.) GENLESRVTLGSPAAESQELLTFKDVSVDFTQEEWGQLAPAHRNLYREVMLENYGNLVSVGYQLSKPGLISQLEKGEEPWL	2.6043
